# Laboratory results taken from PubChem BioAssay AID1508624 (National Center for Advancing Translational Sciences (NCATS), 2021).
# Out of some 48,000 compounds screened, about 120 (0.25%) were called active. Roughly 4% stayed inconclusive and do not appear here. Calls follow the shape of the dose curve; as a rule, active = well fitted activation curve with a large enough effect; inconclusive = small, poorly fitted or top-dose-only effect, or another doubt; inactive = no such curve, though single readings can be large or run the other way. The list shows a part of the results.
# Experiment: Primary qHTS for Identification of Small Molecule Activators of Huntingtin-Antisense Promoter Activity; also: nearly all actives have a fitted effect of over 55% in size
# Conditions: HEK293 HTT-AS promoter firefly luciferase reporter, 24 h; series mostly up to 57.5 µM; activity change, positive = activation: at the top concentration
# From the text: Assay Provider: Russell L. Margolis M.D.
# Department Neurology, Johns Hopkins University School of Medicine, Baltimore, MD
# Huntington's Disease (HD) is a neurodegenerative disorder caused by a CAG repeat expansion in exon 1 of huntingtin (HTT). While there are currently no disease-modifying treatments for HD, recent efforts have focused on development of nucleotide-based therapeutics to lower HTT expression. As an alternative to siRNA or oligonucleotide methods, we hypothesized that suppression of HTT expression might be accomplished by small molecules that either (1) directly decrease HTT expression by suppressing HTT promoter activity or (2) indirectly decrease HTT expression by increasing the promoter activity of HTT-AS, the gene antisense to HTT that appears to inhibit expression of HTT.
# We developed and employed a high throughput screen for modifiers of HTT and HTT-AS promoter activity using luminescent reporter HEK293 cells; of the 52,041 compounds tested, we identified 898 replicable hits. We used a rigorous stepwise approach to assess compound toxicity and the capacity of the compounds to specifically lower huntingtin protein in 5 different cell lines, including HEK293 cells, HD lymphoblastoid cells, mouse primary neurons, HD iPSCs differentiated into cortical-like neurons, and HD hESCs. We found no compounds which were able to lower huntingtin without lowering cell viability in all assays, though the potential efficacy of a few compounds at non-toxic doses could not be excluded.
# SEQUENCE No. (1, 2, 3, etc.); […] (e.g., Cells, Incubation, Reagent, etc.); VALUE and DESCRIPTION.
# 1; Reagent; 4 uL; 2,500 Hek293 luciferase reporter cells per wells
# 3; Compound; 23 nL; Control inhibitor / compound library
# 5; Reagent; 2.5 uL; Firefly Luc reagent; Dual-Glo Luciferase Reporter Assay System (Promega)
# 6; Time; 10 min; room temperature incubation
# 7; Detection; Luminescence; FLuc
# NOTES (numbers refer to sequence above)
# 1; High-throughput screening, measuring luminescence from a Hek293 luciferase reporter, was performed in 1,536 well white-walled tissue-culture treated plates. 2,500 cells were plated in 4 µL of Opti-MEM per well using a Multidrop Combi Reagent Dispenser (ThermoFisher).
# 2; Assay plates were cultured for 24 hours.
# 3; Control inhibitor (PTC124; final concentration of 50 uM) and compound library (at final concentrations of 460 nM - 57.5 uM) were added to the assay plate using the Kalypsis Pintool Robotic System equipped with 1536 pinheads.
# 4; Cells were then incubated for 24 hours at 37 degrees C prior to luminescence measurements.
# 5; In all cases, luminescence was measured using the Dual-Glo Luciferase Reporter Assay System (Promega) following the manufacturer's instructions.
# 6; Room temperature incubation.
# 7; Luminescence signal was obtained using the PerkinElmer ViewLux plate reader. Results were normalized to vehicle control (0% activity) and zero RLU (-100% activity).
# Potency is read from the fitted curve at half-maximal effect.
Compound,"activity change, positive = activation",Potency
O=C(O)c1cccc(NC(=O)c2cccc(S(=O)(=O)Nc3cccc(F)c3)c2)c1,inactive: -2.91%,–
Cc1ccc(N2CCN(c3nc4ccccc4n4nnnc34)CC2)c(C)c1,inactive: 26%,–
COc1cccc(C(=O)Nc2ccccc2SCc2cc(=O)c3cccc(C)c3[nH]2)c1,inactive: -4.62%,–
Cc1cc(C)cc(NC(=O)c2cc(S(=O)(=O)N3CCOCC3)cn2C)c1,inactive: -4.25%,–
Cc1ccc(Cl)cc1N1CCN(C(=O)c2cnn(-c3ccc(Cl)cc3)c2C2CCNCC2)CC1,inactive: -20.7%,–
N#Cc1c[nH]n2c(NC3CCCC3)c(-c3ccc(Br)cc3)nc12,inactive: 4.43%,–
Cc1ccc(NC(=O)C2CCN(c3ncccn3)CC2)cc1F,inactive: -8.86%,–
COc1ccccc1OCCn1c(NC(=O)c2ccccc2)nc2ccccc21,inactive: 33.6%,–
CCc1cc2cc(OC)c(OC)cc2c(Cc2ccccc2)n1,inactive: -12.4%,–
CCOc1ccccc1NC(=O)C(C)n1nnc2sc3c(c2c1=O)CCCC3 (stereo not given),inactive: -0.782%,–
COc1ccc(NC(=O)CSc2nc3ccccc3n2CC(=O)Nc2cccc(C)c2C)cc1,inactive: -23.9%,–
CC1(C)S[C@@H]2[C@H](N=CN3CCCCCC3)C(=O)N2[C@H]1C(=O)O,inactive: -0.977%,–
O=C(O)CNC(=O)CNC(=O)CNC(=O)CSC(=O)c1ccccc1,inactive: -3.4%,–
Cc1ccc(-n2c(SCC(N)=O)nc3c(oc4ccccc43)c2=O)cc1,inactive: -26.7%,–
Cc1ccc(CCNC(=O)c2ccc(Cn3c(=O)c4cccn4c4cccnc43)cc2)cc1,inactive: -20.7%,–
O=C(COc1cccc(Cl)c1)N1CCC(c2nc3ccccc3s2)CC1,inactive: -15%,–
CCn1c(CNC(=O)C23CC4CC(CC(C4)C2)C3)nnc1SCC(=O)Nc1ccc(OC)cc1,inactive: -21.6%,–
Cc1ccc(Cl)cc1N1CCN(S(=O)(=O)c2ccc3oc(=O)c4ncn(C)c4c3c2)CC1,inactive: -14.6%,–
Cc1ccccc1Cn1cc(NC(=O)c2cc(-c3ccc(Cl)cc3)on2)cn1,inactive: -2.54%,–
Oc1ccc(C2CCN(c3ccnc4ccccc34)CC2)cc1O,inactive: -23.6%,–
Cc1cccc(OCC(=O)NCC2(N3CCN(C)CC3)CCCCC2)c1,inactive: -14.5%,–
Cc1cccc(NC(=O)CN2C(=O)COc3ccc(S(=O)(=O)Nc4ccccc4)cc32)c1C,inactive: -30.3%,–
CCCS(=O)(=O)N1CC(=O)N(c2ccccc2C)C(C)(C(=O)NC2CCCCC2)C1 (stereo not given),inactive: -9.44%,–
CC(C)OCCCn1c(=O)c2ccccc2n2c(-c3ccc(F)c(F)c3)nnc12,inactive: -9.19%,–

Compound,"activity change, positive = activation",Potency
Cc1ccc(S(=O)(=O)c2nnn3c2nc(NCc2ccc(F)cc2)c2sccc23)cc1C,inactive: -42.9%,–
CCC1CN(C(=O)N2CCC(C(=O)NCc3ccc(C)o3)CC2)c2ccccc2O1 (stereo not given),inactive: -15%,–
COc1ccc(Nc2cc(C(=O)NCc3ccccc3)c3ccccc3n2)cc1,inactive: -15.1%,–
Cc1ccc(Nc2c(-c3ccc(N4CCOCC4)cc3)nc3ccc(Cl)cn23)cc1,inactive: 1.31%,–
CCOc1ccc(C2c3c(oc4ccccc4c3=O)C(=O)N2Cc2ccc3c(c2)OCO3)cc1 (stereo not given),inactive: -12.1%,–
Cc1cc2c(cc1S(=O)(=O)N1CCC(C(N)=O)CC1)OCC(=O)N2,inactive: -5.47%,–
Cc1cc(C)c(NC(=O)Cn2nnc(-c3nc(-c4ccncc4)no3)c2N)c(C)c1,inactive: -7.5%,–
Cc1cccc(-c2nnn3c2nc(NCCC(C)C)c2ccccc23)c1,inactive: -5.19%,–
COc1cc(C(=O)OC(COCCC(C)C)CN2CCOCC2)cc(OC)c1OC (stereo not given),inactive: -2.74%,–
CCOC(=O)c1cccc(NC(=O)C2(S(=O)(=O)c3ccc(C)cc3)CC2)c1,inactive: -16.7%,–
O=C(CSc1nc2c([nH]c3ccccc32)c(=O)n1-c1cccc(C(F)(F)F)c1)N1CCCC1,inactive: -10.7%,–
COc1cccc(C(=O)Nc2ccc(-c3nc4ccc(C)cc4s3)cc2)c1OC,inactive: -3.14%,–
COc1cn(CC(=O)Nc2ccc(C)cc2C)c(CN2CCCCC2)cc1=O,inactive: -5.51%,–
CCOc1cccc(C2c3c(oc4ccc(F)cc4c3=O)C(=O)N2CCOC)c1 (stereo not given),inactive: 0.0416%,–
CCCNC(=O)C1CCC(Cn2c(=O)c3sccc3n(CC(=O)N3CCCC(C)C3)c2=O)CC1 (stereo not given),inactive: -6.63%,–
CC(=O)C1=C(c2ccc(C)cc2)N(C(C)=O)n2c(nnc2-c2ccccc2)S1,inactive: -3.65%,–
COc1ccc(S(=O)(=O)NCC(c2ccc(N(C)C)cc2)N2CCCC2)cc1F (stereo not given),inactive: -14.8%,–
CCOc1cccc2cc(-c3nc(-c4ccc(Cl)cc4)c(C)s3)c(=O)oc12,inactive: 24.3%,–
COc1ccc(-c2ccc(NS(=O)(=O)c3ccccc3Cl)cc2)nn1,inactive: -29.2%,–
COc1ccc(Cn2c(CCC(=O)Nc3cccc(Cl)c3)nc3cccnc32)cc1,inactive: -32.1%,–
Cc1nc(N2CCOCC2)c2c(C(=O)N3CCN(c4ccc(Cl)cc4)CC3)c(C)oc2n1,inactive: -11.3%,–
CCOc1ccc(C(c2c(C)[nH]n(-c3ccccc3)c2=O)c2c(C)[nH]n(-c3ccccc3)c2=O)cc1OC,inactive: -14.3%,–
COc1ccc(-c2nsc(NC(=O)c3cccc(OC)c3)n2)cc1,inactive: -22.5%,–
CCN(CC)CCNC(=O)c1ccc2c(=O)n3nc(Nc4cccc(Cl)c4C)sc3nc2c1,inactive: -24.5%,–

Compound,"activity change, positive = activation",Potency
CCc1ccc(-c2cn3c(n2)sc2cc(C(=O)NCCCc4ccccc4)ccc23)cc1,inactive: 13.8%,–
O=C(Nc1cccc(-c2nc3cc(Cl)ccc3o2)c1)c1ccc(F)cc1,inactive: -3.82%,–
O=C(Cn1c(=O)n(Cc2ccc(F)cc2)c(=O)c2sc3ccccc3c21)NCc1ccccc1,inactive: -9.11%,–
Cc1ccc(OCCSc2nc3ccccc3n2CC(=O)N2CCCCC2)c(C)c1,inactive: -40.6%,–
NC(=O)N[C@@H](CCC(=O)O)C(=O)O,inactive: -5.39%,–
O=C(Cn1c(=O)oc2cc(S(=O)(=O)N3CCCC3)ccc21)Nc1ccc(OC(F)(F)F)cc1,inactive: -23.5%,–
COc1ccc(-c2nc3sc(CCNC(=O)C(=O)Nc4ccc(C)cc4C)c(C)n3n2)cc1,inactive: 2.28%,–
Cc1ccc(NC(=O)C2CCC(CNS(=O)(=O)c3cccc4nsnc34)CC2)c(C)c1 (stereo not given),"inactive: 2.29% [at 11.5 µM, percent change from vehicle, -100% = no light]",–
Cc1ccc(C)c(Cn2c(C(C)NC(=O)c3ccccc3)nc3ccccc32)c1 (stereo not given),inactive: -28.6%,–
Cc1nc2ccc(S(=O)(=O)N(CC(=O)Nc3cccc(C)c3C)Cc3ccccc3)cc2s1,inactive: -14.2%,–
O=C(CCn1cnc2onc(-c3ccc(F)cc3)c2c1=O)N1CCN(c2ccccc2)CC1,inactive: -19.9%,–
O=C(CSC1=Nc2ccccc2C2=NC(Cc3ccccc3)C(=O)N12)Nc1ccccc1 (stereo not given),inactive: 1.62%,–
O=C(NCc1noc2ccccc12)N1CCN(c2ccccc2F)CC1,inactive: 5.43%,–
CCN(Cc1ccccc1)Cc1c(O)ccc2c(=O)c(-c3ccccc3Cl)coc12,inactive: -12.6%,–
CCn1cc(C(=O)NCCCOC(C)C)c(=O)c2cc(S(=O)(=O)N(C)C3CCCCC3)ccc21,inactive: -25.2%,–
CCOC(=O)c1c(-c2ccccc2)csc1NC(=O)c1cc(-c2cccc(Cl)c2)on1,inactive: -1.99%,–
Cc1ccc(C)c(N2CCN(S(=O)(=O)c3ccc4c(c3)n(C)c(=O)c(=O)n4C)CC2)c1,inactive: 0.615%,–
O=C(NCc1ccccc1)c1ccc(Cn2c(=O)c3cccn3c3cccnc32)cc1,inactive: -6.97%,–
CC(=O)c1cccc(NC(=O)c2ccc3c(c2)c(C)c(C)n3Cc2ccc(Cl)cc2)c1,inactive: -14.6%,–
COc1cc(OC)c(NC(=O)CSCc2nc(-c3ccc(OC)c(OC)c3)no2)cc1Cl,inactive: -2.71%,–
COCCCC/C(=N\OCCN)c1ccc(C(F)(F)F)cc1,inactive: -14.2%,–
O=C(Nc1cc(-c2nc3cc(Cl)ccc3o2)ccc1Cl)c1cc2ccccc2o1,inactive: 7.57%,–
CCOc1ccccc1CNC(=O)c1ccc2nc(CCc3ccccc3)oc2c1,inactive: -13.4%,–
CC(C)(C)COc1ccc(-n2cc(C(=O)O)cn2)cc1C#N,inactive: -77.9%,–

Compound,"activity change, positive = activation",Potency
COC(=O)[C@H](c1ccccc1Cl)N1CCc2sccc2C1,inactive: -45.4%,–
CCOc1ccccc1NC(=O)CN1Cc2ccccc2C1=O,inactive: 0.373%,–
C[C@]12CCC(=O)C=C1CC[C@@H]1[C@@H]2C(=O)C[C@@]2(C)[C@H]1CC[C@]2(O)C(=O)CO,inactive: -7.2%,–
COC(=O)c1ccc(CN(Cc2ccc(OC)c(OC)c2)S(=O)(=O)c2ccc(F)c(C(=O)Nc3cc(C)ccc3C)c2)cc1,inactive: -15%,–
CC(Oc1ccccc1)C(=O)Nc1ccc(C(=O)OCc2cc(=O)n3ccsc3n2)cc1 (stereo not given),inactive: -15.1%,–
Cc1cccc(C(=O)NCC(=O)OCc2cc(=O)n3nc(C)sc3n2)c1,inactive: -4.92%,–
N#Cc1nc(/C=C/c2ccc(F)cc2)oc1N1CCCCC1,inactive: 11.2%,–
Cc1cccc(Nc2cc(C)nc3nc(Cc4ccc(Cl)cc4)nn23)c1,inactive: -27.7%,–
CCCOc1ccccc1C(=O)Nc1ccc(-c2nc3ccc(C)cc3s2)cc1,–,active: 2240 nM
CCOC(=O)c1ccc(NC(=O)Cn2cc(S(=O)(=O)Cc3ccccc3F)c3ccccc32)cc1,inactive: -31.3%,–
Cc1cc(-c2ccccc2)nc2cc(C(=O)Nc3cc(C(F)(F)F)ccc3Cl)nn12,inactive: -1.03%,–
COc1ccc(CNC(=O)c2ccc3c(Cl)c4c(nc3c2)CCCC4)c(OC)c1,inactive: -19%,–
Cc1nc(SCC(=O)Nc2ccc(Cl)cc2C(F)(F)F)[nH]c(=O)c1Cc1ccccc1,inactive: -9.47%,–
Cc1ccc(Cn2cc3c(n2)-c2c(oc(C(=O)Nc4ccc(F)cc4F)c2C)CC3)cc1,inactive: -2.56%,–
O=C(CSc1nc2c([nH]c3ccccc32)c(=O)n1-c1ccc(F)cc1)NCc1ccco1,inactive: -32.7%,–
CC1=C(C(=O)Nc2cc(Cl)ccc2C)C(c2ccco2)n2ncnc2N1 (stereo not given),inactive: -14.4%,–
CCSc1nnc2c(n1)OC(c1sccc1C)N(C(C)=O)c1ccccc1-2 (stereo not given),inactive: -31.1%,–
O=C(NCc1cccc(F)c1)c1ccc2nc(N3CCCCC3)sc2c1,inactive: -19.7%,–
CCOC(=O)C1CCCN(S(=O)(=O)c2cc3c(cc2C)NC(=O)CO3)C1 (stereo not given),inactive: -16.4%,–
Cc1ccc(OCC(=O)Nc2ccc3nc(SCC(N)=O)sc3c2)cc1,inactive: -9.51%,–
COc1ccc(Cn2c(=O)c3oc4ccccc4c3n(Cc3cccc(F)c3)c2=O)cc1,inactive: -37.6%,–
COC(=O)c1c(C)oc2ccc(N(C(=O)Oc3ccccc3)S(=O)(=O)c3ccc(C(C)(C)C)cc3)cc12,inactive: -26.9%,–
O=C(NCCc1ccc(Cl)cc1)c1ccc2c(c1)N(Cc1c(F)cccc1Cl)C(=O)CS2,inactive: -32.3%,–
